Our source for the binding signal values is PMC7819943, “Rice protein-binding microarrays: a tool to detect cis-acting elements near promoter regions in rice”.

The list shows a part of the results.

The target in the assay is T1, OsWOX13 (Oryza sativa, UniProt Q5QMM3 1-267).
T1 sequence: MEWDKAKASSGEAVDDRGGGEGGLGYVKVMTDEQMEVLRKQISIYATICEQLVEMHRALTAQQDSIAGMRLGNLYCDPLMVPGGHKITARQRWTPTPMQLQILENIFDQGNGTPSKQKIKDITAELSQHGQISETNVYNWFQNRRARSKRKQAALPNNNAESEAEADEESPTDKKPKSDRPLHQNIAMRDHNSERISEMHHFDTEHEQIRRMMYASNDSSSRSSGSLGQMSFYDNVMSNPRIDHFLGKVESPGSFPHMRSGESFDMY
In words: protein-binding microarray (RPBM); PBS, 2% BSA, 51.3 ng/ul salmon testes DNA, 50 uM zinc acetate, 200 nM TF, 25 C, 1 h; high values mean tight binding. The conditions noted are these: protein: recombinant; tags: N-terminal polyhistidine and DsRed monomer fusion (pET32a); label: CyDye5-dUTP incorporated in the synthesized complementary strand; 3' TTTTT single-stranded linker to array surface; dsDNA, one strand shown. The gist of the method: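 Transcription factors, each fused N-terminally to a polyhistidine tag and DsRed, were expressed in E. coli BL21-CodonPlus and purified on Ni–NTA. A custom Agilent array was made double-stranded by primer extension with Cy5-dUTP and blocked with 2% BSA. It was incubated with 200 nM protein in PBS, 2% BSA, salmon testes DNA and 50 µM zinc acetate at 25 °C for 1 h, then washed. The binding signal is per-feature fluorescence intensity (arbitrary units) read on an Axon 4000B scanner.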
Turning to “CATACATCAATCAGTTCTTGATTTGACCGGCATTGTATTGCGGAGTCACCTAGTGCAG”, the binding signal is 51200 fluorescence intensity (a.u.).

On to “ATTAATTAGCTCTAGATTAAGCTAATTGCCATCAATGGCTCGGAGTCACCTAGTGCAG”, for which the binding signal is 46400 fluorescence intensity (a.u.). In the case of “TATATGGTTATGATTATGTCACGGCTGTTGCCTGACGGGCCGGAGTCACCTAGTGCAG”, the binding signal was 3520 fluorescence intensity (a.u.). The value for “GTCTCGTAATTTTCTGTTGAACTATGTAATTGATTTCTTTCGGAGTCACCTAGTGCAG” was 10500 fluorescence intensity (a.u.). Next, “AATTAATTTCGGAAAAGGAGAATGAAGTTTGAGAGTGACACGGAGTCACCTAGTGCAG”: 3290 fluorescence intensity (a.u.); “ATTAATACTAATTTGTTTCCTTCAACAACTACTGATCGATCGGAGTCACCTAGTGCAG”: 13900 fluorescence intensity (a.u.). Consider “TTTGCTAGATTGGAGCAAATCGCATATTCTTAACCCCACCCGGAGTCACCTAGTGCAG”, for which the binding signal is 21600 fluorescence intensity (a.u.). The value for “TTGTGATTTGTGGGATTAGTATCTCTGTCGGTGTCATATCCGGAGTCACCTAGTGCAG” was 39600 fluorescence intensity (a.u.); that for “CATAATTAGTATACTATGACACCGATACCGATAGCTAGACCGGAGTCACCTAGTGCAG” was 29500 fluorescence intensity (a.u.).

Turning to “AGCATCATTGACGTGATTACCGTCCGGTGACTGACGTACGCGGAGTCACCTAGTGCAG”, the binding signal is 24200 fluorescence intensity (a.u.).

For “CCCATCCAATTAACTACAAGACCCCAGTTCATCCAGTGGACGGAGTCACCTAGTGCAG”, the binding signal was 14000 fluorescence intensity (a.u.). Next, “GATTTGATTGGTCATTCTGTGCAAAACTGTCCGCGAATGGCGGAGTCACCTAGTGCAG”: 44100 fluorescence intensity (a.u.).

Regarding “TGGGAATAGAAAATGATAATCATATTTGTATATGGATCTCCGGAGTCACCTAGTGCAG”, the binding signal is 3640 fluorescence intensity (a.u.). The value for “CTTGATAGGTATCGACACTACGAGAGTTTACTACTGAATTCGGAGTCACCTAGTGCAG” was 24500 fluorescence intensity (a.u.); that for “ACAAAGAGATTGAACCTAAACCAATCAGAATAGACAACATCGGAGTCACCTAGTGCAG” was 11500 fluorescence intensity (a.u.).

For the sequence “TCTGATATGATTTTATATAGTGGGCTTGTTGCCTGACTGTCGGAGTCACCTAGTGCAG”, the binding signal is 31500 fluorescence intensity (a.u.).

“ATATACTTATAATCAAATCAATAATCCGTGATGGTAATTCCGGAGTCACCTAGTGCAG”: the binding signal was 12500 fluorescence intensity (a.u.). Next, “ACACTACAGATGCTGACTTGATTGCGACCAAACATCACGACGGAGTCACCTAGTGCAG”: 8290 fluorescence intensity (a.u.). “CATAATTTTAATTTTAATTTTAATTTTATAAAATTTCAGTCGGAGTCACCTAGTGCAG”: the binding signal is 42300 fluorescence intensity (a.u.). Next, “CAATTGTACAAAGCACCTTAATTGATAACGAGCGCACAACCGGAGTCACCTAGTGCAG”: 7020 fluorescence intensity (a.u.); “AAACAAATGATTTTATTCATTTACTCATTCATCATATCACCGGAGTCACCTAGTGCAG”: 10300 fluorescence intensity (a.u.). Next, “CTAATATTTAACTAATTATGTGCTAATGAATCTTCTCATTCGGAGTCACCTAGTGCAG”: 13400 fluorescence intensity (a.u.); “TATAACATATTATGTAGCTTAATTTACCGTAGCAACCGGCCGGAGTCACCTAGTGCAG”: 4090 fluorescence intensity (a.u.); “TATCAGATTGAATTTACCCTGCTACACAGTTGCCTTTACTCGGAGTCACCTAGTGCAG”: 17400 fluorescence intensity (a.u.).

Take “ACCCAAAATTAACTCTAAACTTAAGTTTCAAAATCTAAATCGGAGTCACCTAGTGCAG”: the binding signal is 7640 fluorescence intensity (a.u.). Next, “CAAATTTGACCGCCAACGCAACCAATCAGTTGCACAGTTACGGAGTCACCTAGTGCAG”: 7360 fluorescence intensity (a.u.).

For “CAATTCAATCTAAATCTGTCTATACTATTTTAAATATTAACGGAGTCACCTAGTGCAG”, the binding signal is 5960 fluorescence intensity (a.u.). The value for “GTTAGTTAATTACTCCAATTAATTGACGCGTCCGTGCGTGCGGAGTCACCTAGTGCAG” was 42800 fluorescence intensity (a.u.). Consider “AAACTCAATCAATCATACGTTATTTGGCCTGGTTTAGTTCCGGAGTCACCTAGTGCAG”, for which the binding signal was 40000 fluorescence intensity (a.u.). As to “GCAGTAATGGACCATTTAGCCGAATGCCAACGCCGAACTACGGAGTCACCTAGTGCAG”, the binding signal is 3840 fluorescence intensity (a.u.). As to “ATCAAATCATTATTCAGACTTGACCTGGTACACAACACAACGGAGTCACCTAGTGCAG”, the binding signal was 3330 fluorescence intensity (a.u.). Take “GGAATTTACAACTAATTGAACATGCTAACATTTGACATATCGGAGTCACCTAGTGCAG”: the binding signal was 21500 fluorescence intensity (a.u.). The value for “GAAATTGATTTCCATTATCAATACCAGCTAAATATATTCTCGGAGTCACCTAGTGCAG” was 38100 fluorescence intensity (a.u.); that for “TGAAATTTCTACTGTCATGCTTCCTTGTCCCATTACAACACGGAGTCACCTAGTGCAG” was 3640 fluorescence intensity (a.u.). With “AAAACTAATTACACAGTTTGCATAGAAATTGCGAGACGAACGGAGTCACCTAGTGCAG”, the binding signal was 26100 fluorescence intensity (a.u.). As to “ATCAAGTTTAAATTTTGATTATAAGCAAAATTGATGGCCCCGGAGTCACCTAGTGCAG”, the binding signal is 15100 fluorescence intensity (a.u.).

Turning to “GGATAATGAATGTTTTATTGTCCATAGTCTTTGCGCTTTTCGGAGTCACCTAGTGCAG”, the binding signal was 5600 fluorescence intensity (a.u.). Take “AAGATTGAGCGTTGGGCAATTGTTAATTTCTCTGCTCGGTCGGAGTCACCTAGTGCAG”: the binding signal was 11900 fluorescence intensity (a.u.). Turning to “GTAAAATTAAATGATATAAATTATGATAAGTCGAAAAGAACGGAGTCACCTAGTGCAG”, the binding signal was 20200 fluorescence intensity (a.u.). Next, “AAAATCACCTACAAATTTACATCACAAAATTATCCCCAAACGGAGTCACCTAGTGCAG”: 5310 fluorescence intensity (a.u.); “GTGACTGAATTGGCATCCATATCGCTTCTCGCTGCTCATCCGGAGTCACCTAGTGCAG”: 10400 fluorescence intensity (a.u.). Next, “GTTTAATATTTATAATTAATTTTCAAACATCCGATGTGATCGGAGTCACCTAGTGCAG”: 19000 fluorescence intensity (a.u.).
